Results on 22 molecules are retold here after article PMC12136788.

First the molecules themselves.
T1: UNK ZnF1-3 (human, UniProt Q9C0B0 31-174)
T1 sequence: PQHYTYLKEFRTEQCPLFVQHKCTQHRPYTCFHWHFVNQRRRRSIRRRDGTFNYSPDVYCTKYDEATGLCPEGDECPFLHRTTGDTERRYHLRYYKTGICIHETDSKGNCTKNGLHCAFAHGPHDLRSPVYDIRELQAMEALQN

B1: chr5:107067165:107067166:-_ENSMUSG00000049606_ENSMUST00000112696|mus_mus|motif|central (ssRNA)
RNA: GGGAGUUCUACAGUCCGACGAUCAACUAAAGCAGAGGUAGGUACUUUUUUAAUGGAAUGGGUUGGAUUCUUAGCAUGUGCGGCAUCUGAUAACAAAAACAGAACUUGGUGUUGACUUGCUUUUUGUGGUGUAGACAGCUGAUGCAACAGAGGAUUGAGCAUCA
B2: chr7:54825262:54825263:-_ENSG00000132432_ENST00000352861|hu_hu|hu_hu_hu_mus_False|48_108 (ssRNA)
RNA: GGGAGUUCUACAGUCCGACGAUCCUGACUUGGCUCAUCCACAAACUGCAUUACCUGAUCCAUGUUUGUUGGAUGGCGGAUUGAGAGUGCCAGGGACCGUAGCUCAGGAGAGAACCGAGCCCAACGGAACCGGAAGCUGGCAACCAACAGAGGAUUGAGCAUCA
B3: chr8:112342892:112342893:+_ENSMUSG00000031731_ENSMUST00000093157|mus_mus|FALSE|FALSE (ssRNA)
RNA: GGGAGUUCUACAGUCCGACGAUCAUUAAGAUCAUUCUUGAUACAGUUGGUCAUGAGAAGAUGCACAUCUUGUCUUUCAUCUAAUAAUAGCAUUGCUCCUAAAUAGCCAAUGCGUUUGUCUGUGAAUUUUUGUGAGGCGAUUAGCAACAGAGGAUUGAGCAUCA
B4: chr8:127197416:127197417:-_ENSMUSG00000037300_ENSMUST00000118134|mus_mus|motif|central (ssRNA)
RNA: GGGAGUUCUACAGUCCGACGAUCUUUUGCUAUUUUGCUGAAGGCCUCUGAGCCAGGGGCUGUCAUGGCUUCAAAGUCGACGGACUGGAAAAGAGGAGGCGCAGGACGUGAUAAAAGGAAGGAAAUGGUGUGGGGUCUAGCUCGCAACAGAGGAUUGAGCAUCA
B5: chr22:19452774:19452775:-_ENSG00000070010_ENST00000399523|hu_hu|hu_hu_hu_mus_False|78_108 (ssRNA)
RNA: GGGAGUUCUACAGUCCGACGAUCCUUUUCAUUAUAGUUGAUAGCAAUCACAUCUCCGGUGGUCAGACAGGCGAAGUUUCUCAAUGCAUUUUCUAAUACCGCUUUAGGGUUGGUAAUAUCCAGGAAGUCUGGGCUCUGAGGCUGCAACAGAGGAUUGAGCAUCA
B6: chr19:16452684:16452685:+_ENSMUSG00000024639_ENSMUST00000025541|perfect_dup|motif|central (ssRNA)
RNA: GGGAGUUCUACAGUCCGACGAUCGUUUAAGAACAGAAUAACCGAGGAGUUCUGGAACCAGGGGUAUGUGAUAAUUGUUCGGAAGAGAGCCUUGCUUUCCUCCAUUCGGUUCUCAUUGUCUGACUCCACGAGAACUUGAUCAUACAACAGAGGAUUGAGCAUCA
B7: chr14:76906223:76906224:+_ENSMUSG00000022010_ENSMUST00000022587|mus_hu|FALSE|FALSE (ssRNA)
RNA: GGGAGUUCUACAGUCCGACGAUCCACUUCUUCUCUGACCGCAUACAUCAAAUGGCUUUUCACUAGAUCCAUAGCUUGCUCGAUUUUGUUGUCAAUAGCUACCACACUUGCACCAGAGGAGCUAUUAUCAAGUCUCACAGAAGCCAACAGAGGAUUGAGCAUCA
B8: 59820266_59820386_262_5pUTR_ENSMUSG00000035469_ENSMUST00000043227|mouse|control|control (ssRNA)
RNA: GGGAGUUCUACAGUCCGACGAUCAGCGCAGCUCCUCAGAGGCAGGCCGCGGGCAACGCCACGUACUCGGCUCGCCGCACACCUGGGGGAAGCGCCCGCAAGACGGAAUCCGCGGGUGCCCGGUGCGGGGUGCGCGUCGCCGGGCAACAGAGGAUUGAGCAUCA
B9: chr18:48422213:48422214:+_ENSG00000082212_ENST00000321341|hu_hu|FALSE|FALSE (ssRNA)
RNA: GGGAGUUCUACAGUCCGACGAUCGCUUGCCUUUUUCUUUUAUGUGCAAAUGUCGACAUGCCAAAGUACAAGUGGUGGAAACUACUCUUAACCGGGACAACAUCUUUUCUUUCACCAGAGGUCUCGCGCCGCGACAGGUGGUACCAACAGAGGAUUGAGCAUCA
B10: 32800332_32819000_13448_CDS_ENSG00000115760_ENST00000421745|human|control|control (ssRNA)
RNA: GGGAGUUCUACAGUCCGACGAUCAACAUUUUCCCUUUUAGAUCUUAAACGGUUGGUAUAGGUAUCAACACAGGUCUUCAUUUUGGCUAACAAUGUACCAACAGAAGUUUGACAUUCUGACUGUUCUUCUUCCUCUUCACCGUUCAACAGAGGAUUGAGCAUCA
B11: chr14:70842435:70842436:-_ENSG00000213463_ENST00000256366|hu_mus|motif|central (ssRNA)
RNA: GGGAGUUCUACAGUCCGACGAUCAACAACCAGCAACCUGUGCUGUACUCUCAGGGACACAGCACAUCCCGCAUUACGGAAGAGGUCGGCAGCAUCUUGGUGCAGCAGGUUCUUCAGAUCUUGGCCAUUUACCGAGAGGAUCUUCAACAGAGGAUUGAGCAUCA
B12: chr9:72560005:72560006:+_ENSMUSG00000032216_ENSMUST00000034740|mus_hu|FALSE|FALSE (ssRNA)
RNA: GGGAGUUCUACAGUCCGACGAUCCUGUUCUGCAUUAUCAUCUUCUGAGCCACUGGUUUUAGGUAAAUAAGUCAUUUUUAGUCUCAGAUAACCUUUAACUCUUGAUUUGUGACUUCUUGGAUGAAGAACAAAAUCCUUAAAUGUCAACAGAGGAUUGAGCAUCA
B13: 66471940_66472060_1036_CDS_ENSMUSG00000015222_ENSMUST00000077355|mouse|control|control (ssRNA)
RNA: GGGAGUUCUACAGUCCGACGAUCGAUUUUGGACUUGACAUUCUUCAGGUCCGGCAGUGGUUGGUUAAUAAGCCGAAGCUGCUUAGGAGUAGCUGGGGACUUUGGAGGAGUGCGGAUGAUGGCAACUUUCUUCUCACUGGGCACCAACAGAGGAUUGAGCAUCA
B14: chr2:166753246:166753247:+_ENSMUSG00000002718_ENSMUST00000002790|mus_mus|motif|central (ssRNA)
RNA: GGGAGUUCUACAGUCCGACGAUCAAACAGAUUCUUAUAAUGUGGCCUUUCACAAACUGAAGCCAGAAACUGAAUUGCAUUGCGGACCAACAAGUCAUAUUUAACUUCUCGCCCUGUUGUAACGAGUAAGUUCCAGAUAGCUGUCAACAGAGGAUUGAGCAUCA
B15: chr9:95013113:95013114:-_ENSG00000196305_ENST00000443024|hu_hu|hu_hu_hu_mus_False|8_18 (ssRNA)
RNA: GGGAGUUCUACAGUCCGACGAUCCUCAGUCAGAAAGGGCGUGUAAGGGGCCAUCAGUCUGCACAGAGAAAGCAGGACACUGAACAGUGUCUCCAGAGCCAUGACACAGUCUUCCACCCCAUUUUCACCCUUUAAUCUCCUCCUCAACAGAGGAUUGAGCAUCA
B16: 89226026_89236121_890_CDS_ENSG00000065243_ENST00000370521|human|control|control (ssRNA)
RNA: GGGAGUUCUACAGUCCGACGAUCUGCCUGAAGAAUCUGCAUUCGUAUGACUUCUAUUUUUGUCUUGCUGUCCUGGAGCAGUUGCUGAGCUGUACCAUGGAGUUUCCGAUCCUUUGAAGAUCCAUUUGAAUACAUCUGUAUCAUCAACAGAGGAUUGAGCAUCA
B17: chr18:56819859:56819860:+_ENSG00000166562_ENST00000588875|hu_mus|hu_hu_hu_mus_True|8_8 (ssRNA)
RNA: GGGAGUUCUACAGUCCGACGAUCAACCUUGAUUACUCUGUGAACUAUCGGAAUGUCUCUUCCUUCAACCUUAAAAACAACUAUUUCACCAGCUCUGAUGGGGUCCUCCCGGAAAUUCGUGAGGAACAGGAGGUCUCCUCUGUGCAACAGAGGAUUGAGCAUCA
B18: chrM:14062:14063:+_ENSG00000198786_ENST00000361567|hu_hu|motif|central (ssRNA)
RNA: GGGAGUUCUACAGUCCGACGAUCGUGAUGAUGGAGGUGGAGAUUUGGUGCUGUGAAAUUGUUUUAGGUAAUAGCUUUUCGGGUCAGGUUAGGUCUAGGAGGAGUAGGGGCAGGUUUUGGCUCGUAAGAAGGCCUAGAUAGGGGCAACAGAGGAUUGAGCAUCA
B19: 126749318_126751576_781_3pUTR_ENSMUSG00000027366_ENSMUST00000028844|mouse|control|control (ssRNA)
RNA: GGGAGUUCUACAGUCCGACGAUCGUCUUCCACUGACUUCAUGUUUUCCAAUUCAAUAAGUCCACUCCAGUAUCCUCCUAAGGCCACAGUGAACACAGCAAUUACAAAAAUAACCACCAGAGUAUAGUCAAAGUUAGGCCAGGACAACAGAGGAUUGAGCAUCA
B20: chr8:95500983:95500984:-_ENSG00000164944_ENST00000437199|hu_hu|hu_hu_hu_mus_True|78_88 (ssRNA)
RNA: GGGAGUUCUACAGUCCGACGAUCAGAACACAUCUAUCGAGUAAAGGGAGCGUACAUGACGACCUCUCCACUGCCUCCACUAACAAACUUUCCUCUCGAGCCUCCACUGCCGCUAUUUGUACUAGCCCAGGACGGUCCCAGGCCCAACAGAGGAUUGAGCAUCA
B21: chr3:35992786:35992787:+_ENSMUSG00000027710_ENSMUST00000011492|mus_mus|FALSE|FALSE (ssRNA)
RNA: GGGAGUUCUACAGUCCGACGAUCAAAAAUGGAGCAGAUACCGAAAGAAAGGUCAUCCAGAGAUGGGCCCAAUUUGCAAUCUAUCCUAUGUAAAGGCACCAAACACCAACACUAUUACUGCUGUGUUUGCAGAUAGGAGCCCAGCAACAGAGGAUUGAGCAUCA
B22: chr4:54294246:54294247:+_ENSG00000145216_ENST00000306932|hu_hu|motif|central (ssRNA)
RNA: GGGAGUUCUACAGUCCGACGAUCUGGAGGAGGUGGAAGGUGAGUGGGAGGAGCUCCUGGAGGGAAAAACGGAGGUGGUUUGCGGAAAUUGUUGUCUACUUCAGUAGCAGAUCUUUCAGAAAGGACCUGUAUGUUGCUGUUCUCCAACAGAGGAUUGAGCAUCA

The list shows a part of the results.

The test has as its target T1, UNK ZnF1-3. Nature of the test: nsRBNS (natural sequence RNA bind-n-seq); RBNS binding buffer (assumed for nsRBNS): 25 mM Tris pH 7.5, 150 mM KCl, 3 mM MgCl2, 0.01% Triton X-100, 500 ug/ml BSA, 20 U/ml SUPERase-In, 4 C; UNK is unkempt and MSI1 is Musashi-1; names of the RNAs are library labels; protein concentration not given here; high values mean tight binding.
Molecule B1 gave a binding signal of 1.57 enrichment R.

B2 yielded a binding signal of 1.14 enrichment R.

With B3, the binding signal is 0.549 enrichment R.

For B4, the binding signal came out at 1.42 enrichment R.

B5 returned a binding signal of 0.969 enrichment R.

With B6, the binding signal was found to be 0.827 enrichment R.

Molecule B7 had a binding signal of 1.19 enrichment R.

In turn, B8 displayed a binding signal of 0.51 enrichment R.

Molecule B9 yielded a binding signal of 0.834 enrichment R.

As for B10, the binding signal turned out to be 0.703 enrichment R.

B11: the binding signal turned out to be 1.52 enrichment R.

Take B12: the binding signal came to 0.814 enrichment R.

As to B13, the binding signal is 0.858 enrichment R.

In turn, B14 had a binding signal of 0.905 enrichment R.

In turn, B15 came in with a binding signal of 1.12 enrichment R.

B16 showed a binding signal of 0.509 enrichment R.

The molecule B17 registered a binding signal of 0.786 enrichment R.

In the case of B18, the binding signal amounted to 2.77 enrichment R.

B19 registered a binding signal of 1.32 enrichment R.

Consider B20, for which the binding signal is 1.44 enrichment R.

Take B21: the binding signal was determined as 1.21 enrichment R.

B22 yielded a binding signal of 1.36 enrichment R.
